First the molecules themselves.
B1: LINE1-mini (parent)
chain: GGCAGAGCUCAACACAGCGUGGCAAAGUGGCUGUGGCUAGACUGCC

Results on 56 variants are retold here after the RNAGym collection of RNA variant scans (doi:10.7554/elife.90254).

Read counts are not given, so values of variants with three or more changes are uncertain.

In this data set the parent is B1. In words: self-cleavage, relative activity (ratio to wild type); higher = more cleavage; in vitro, sequencing; the parent is a self-cleaving ribozyme.
Regarding GGAAAAUCUCAACACAGCGUGGCAUAGAGGCCGAGGCUUGACUGCC [C3A G5A G7U A25U U28A U32C U34A A39U], the self-cleavage amounted to 0.11. For GGAAGAGCUCAACACAUCUUGGCAACGUGGCUGUGGCUAGACUGCC [C3A G17U G19U A26C] the value was 0.15; for GGAAUGGCUCAACACAGCGUGGCAAAGUGGCUGUGGCUAGACGGCC [C3A G5U A6G U43G], 0.28; for GGAAUAGCUCAACACAGCUUGGCAAAGUGGCUGUGGCUAGACUGCC [C3A G5U G19U], 0.14. For GGAAGACCUCCACACGGCGUGGCAAAGUGGCUGUGGCUAGACUUGG [C3A G7C A11C A16G G44U C45G C46G] the value was 0.02.

Turning to GGAAAAGCUCAACACAGCGUGGCAAAGUGGCUGUGGGUAGACUGCC [C3A G5A C37G], the self-cleavage was 0.24.

Regarding GGAAGAGCUCAACACAGCGUGGCAAAGUGGUUGUGACAAGACUGCC [C3A C31U G36A U38A], the self-cleavage was found to be 0.51.

Consider GGAAGAGCUCAACACAGCCUGGCAAAGUGGCAGUGGCUAGACUGCC [C3A G19C U32A], for which the self-cleavage was 0.05. On to GGAAGAACUCAUCACAGCGUGGCUAAGUCGCUAUGGCUAGACUGCC [C3A G7A A12U A24U G29C G33A], for which the self-cleavage came to 0.16. With GGAAGAGCUCAACACACCUUGGCAAAGUGGCUGUGGCUGGACUGGC [C3A G17C G19U A39G C45G], the self-cleavage turned out to be 0.59. As for GGAAAAGCUCAACACAGCGUGGCACAGUGGCUGUGGCUAGACUGCC [C3A G5A A25C], the figure is 0.63; as for GGAAGAGCUCAACACAGCUUGGCAAAGUUGCUGUGGCUAGAAUGCC [C3A G19U G29U C42A], 0.28; as for GGAAAAGUUAAACGCAGCGUGGCAAAGUGGCUGUGGCUAGACUGCC [C3A G5A C8U C10A A14G], 0.1.

For GGAAGAACUCAAUACAGCGAGGCAAAGUGGCUGUGGCUAGGCUGCC [C3A G7A C13U U20A A41G], the self-cleavage came to 0.21. Regarding GGAAGACUUCAACACAGCGUGGCAAAGUGGCUGUGGCUUGACUCCC [C3A G7C C8U A39U G44C], the self-cleavage was found to be 0.37. GGAAGAGCUCAACACAGCGUGGCAAAGUGGCUGUGGGUAUACUGCC [C3A C37G G40U]: the self-cleavage stood at 0.23. For GGAAGAGCUCAACACAGCGUGGCAAAGUGGCUGUGGUUAGACUGGC [C3A C37U C45G] the value was 0.17. With GGAAGAGCUCAACACAGCUUAGCAAAGUGGCUGUUGCGAGACUGCC [C3A G19U G21A G35U U38G], the self-cleavage worked out at 0.04. As for GGAAUAGCUCAACACAGUGUGGCAAAGUGGCAGUGGCGUGAAUGCC [C3A G5U C18U U32A U38G A39U C42A], the self-cleavage turned out to be 0.02. Consider GGAAAAGCUCGACACAGCGUGGCAAAGUGGCUGUGGCUAGACUGUC [C3A G5A A11G C45U], for which the self-cleavage was 0.06. For GGAAGAGCUCAACACAGCGUGGCAAAGUGGUUGUGGCGAGACUGCC [C3A C31U U38G] the value was 0.08; for GGAAUAGCUCAAAACAGCGUGGCAAAGUGGCUGUGGGUAGACUGCC [C3A G5U C13A C37G], 0.59; for GGAAGAGCUCAACACAGCCUGACAAAGUGGCGGUGGCAAGACUGCC [C3A G19C G22A U32G U38A], 0.04. Regarding GGAAGACCUCAACACAGCGUACCAAAGUGGCUGUGGAUAGACUGCC [C3A G7C G21A G22C C37A], the self-cleavage is 0.03.

GGAAGACCACAGCACAGCGUGGCAACGAGGGUGUGGCUAGACUGCC [C3A G7C U9A A12G A26C U28A C31G]: the self-cleavage turned out to be 0.05. For the variant GGAAGAGCUCAACACAGCGUGGCAAAGUGGCUGUGGUGAGACUGCC [C3A C37U U38G], the self-cleavage worked out at 0.03. As for GGAACAGCUCAUCACAGCGUGGCAAAGUGACUAUCGCUAGACUGCC [C3A G5C A12U G30A G33A G35C], the self-cleavage was found to be 0.05.

As for GGAAGAUCUCAACGGAGGGUGGCAAACUGGCUGUGGCUAGACUGCC [C3A G7U A14G C15G C18G G27C], the self-cleavage amounted to 0.06.

In the case of GGAAGAGCUCAACACAACGUGGCGGAGUGGCUGUCACUAGACUGCC [C3A G17A A24G A25G G35C G36A], the self-cleavage turned out to be 0.22.

GGAACAGCUCAACACAGCGUGGCAAAGUGGCUGUGGCUAGACUGCA [C3A G5C C46A]: the self-cleavage came to 0.13. On to GGAAGAGCUCAACACAGCAUGGCAAAGUGGCUGUGGCUGGACUGCC [C3A G19A A39G], for which the self-cleavage came to 0.17. As for GGAAGAGCUCAACACAAAGUGGCAAAGUGGCUGUGGCUAGACUGCC [C3A G17A C18A], the self-cleavage was 0.25. For GGAAUAGCACAACACAGCGUGGCAAAGUGGCUGUGGCUAGACUGCC [C3A G5U U9A], the self-cleavage amounted to 0.12. For GGAAGAGCUCAACACAUCGUGGCAAAGUGGCUGUGGCUAUACUGCC [C3A G17U G40U], the self-cleavage amounted to 0.23. With GGAAGAGCUCAACACAACGUUGCAAAGUGGCUGUGGCUAGACUGCC [C3A G17A G21U], the self-cleavage is 0.25. In the case of GGAAGAGCUCAACACAGCGUGGCAAAGUGGUUGGGGCUAGACUGCG [C3A C31U U34G C46G], the self-cleavage is 0.09. GGAAGACCUCAACACAGCGUGGCAAAGGGGCUGUGGCUAGAUUGCC [C3A G7C U28G C42U]: the self-cleavage turned out to be 0.04. Consider GGAAGAGCUCAACACAGCGUGGCAAAGUGGUUGUGGCUAGUCUACC [C3A C31U A41U G44A], for which the self-cleavage was 0.03. For the variant GGAAGAGCUCAACACAGCAAGGCAAAGUGGCUGUGACUAGACUGCC [C3A G19A U20A G36A], the self-cleavage worked out at 0.31. For GGAAGAGCUCAACACAGCUCGGCAAAGCGGACGUGGCUAGACUGCC [C3A G19U U20C U28C C31A U32C] the value was 0.01. For GGAAAAGCUCAACACAACGUGGCAACGUGGCUGUGGCUAGACUGCC [C3A G5A G17A A26C] the value was 0.2; for GGAAGAGCUCAACACACCGUGGCAAAGAGGCUGUGUCUAGACUGCC [C3A G17C U28A G36U], 0.06. With GGAAGACCUCAACACAGCGUGGCUUAGUGGCUAAGGCUAGACUGCC [C3A G7C A24U A25U G33A U34A], the self-cleavage was 0.07. Consider GGAAGAGCUCAACACAGCGUGGCAAAGUGGGUGUGGCUAGACGGCC [C3A C31G U43G], for which the self-cleavage was 0.06. Take GGAAGAACUCAACACAGCGUGGAAAAGUUGCUGUGGCUAGACCGCC [C3A G7A C23A G29U U43C]: the self-cleavage was 0.06. As for GGAACAGCUCAACACAGCGUGGCAAAGUGGCUGUGUCUAGACUGCC [C3A G5C G36U], the self-cleavage came out at 2.61. Turning to GGAAGAGCUCAACACAGCAUGGCAAAGUGGCUGUGGCUACACUGCC [C3A G19A G40C], the self-cleavage came to 0.11. For GGAACAGCUCAACACAGCGUGGCAAAGUGUCUGUGGCUAGACUGCC [C3A G5C G30U], the self-cleavage worked out at 0.05. On to GGAAGACCUAUACACAGCGUGGCAAAGUGGGUGUGGCUAGACUGCC [C3A G7C C10A A11U C31G], for which the self-cleavage stood at 0.05. As for GGAAGAACUCAACACAACGUGGCAAAGUGGCUGUGGCUAGACUGCC [C3A G7A G17A], the figure is 0.2; as for GGAAUAGCUCAACACAGCGUGGCAAAGUGGCUGUGGCGAGACUGCC [C3A G5U U38G], 0.03. Regarding GGAAGAACUCAAAACAGCGUGGCAAAGUGGCUGUGGCUAGACUGCC [C3A G7A C13A], the self-cleavage stood at 0.19. With GGAAGAGCUCAACACAGCAUGACAGAGUGGCUGUGGCCAGACUGCC [C3A G19A G22A A25G U38C], the self-cleavage was found to be 0.1.

Turning to GGAAGACCCCAACACAUCGUGGCAAAGUGGCUGUGGCUAGACUCCC [C3A G7C U9C G17U G44C], the self-cleavage amounted to 0.08. In the case of GGAAGAGCUCAACACAGCGUAGCAAAGUGGUUGUGGCUAGACUGCC [C3A G21A C31U], the self-cleavage stood at 0.07.

Consider GGAAGAGCUCAACACAGCAGCGCAAAGUGGCUGUGGAUAGACUGCC [C3A G19A U20G G21C C37A], for which the self-cleavage was found to be 0.04.
